The supplement of paper PMC3334620
In all, about 33,000 sequences were measured (“E-score (-0.5 to 0.5)”: median about -0.043, highest 2% from about 0.37 on). The list shows a part of the results.

Each sequence was assayed against T1, Upc2 (UniProt Q12151) (assay: PBM E-score (8-mer binding enrichment) (E-score (-0.5 to 0.5)); higher = stronger / more preferred TF binding; most listed sequences are background and not binding sites). Details: protein concentration: 200 nM; construct: GST-full length.
T1 sequence: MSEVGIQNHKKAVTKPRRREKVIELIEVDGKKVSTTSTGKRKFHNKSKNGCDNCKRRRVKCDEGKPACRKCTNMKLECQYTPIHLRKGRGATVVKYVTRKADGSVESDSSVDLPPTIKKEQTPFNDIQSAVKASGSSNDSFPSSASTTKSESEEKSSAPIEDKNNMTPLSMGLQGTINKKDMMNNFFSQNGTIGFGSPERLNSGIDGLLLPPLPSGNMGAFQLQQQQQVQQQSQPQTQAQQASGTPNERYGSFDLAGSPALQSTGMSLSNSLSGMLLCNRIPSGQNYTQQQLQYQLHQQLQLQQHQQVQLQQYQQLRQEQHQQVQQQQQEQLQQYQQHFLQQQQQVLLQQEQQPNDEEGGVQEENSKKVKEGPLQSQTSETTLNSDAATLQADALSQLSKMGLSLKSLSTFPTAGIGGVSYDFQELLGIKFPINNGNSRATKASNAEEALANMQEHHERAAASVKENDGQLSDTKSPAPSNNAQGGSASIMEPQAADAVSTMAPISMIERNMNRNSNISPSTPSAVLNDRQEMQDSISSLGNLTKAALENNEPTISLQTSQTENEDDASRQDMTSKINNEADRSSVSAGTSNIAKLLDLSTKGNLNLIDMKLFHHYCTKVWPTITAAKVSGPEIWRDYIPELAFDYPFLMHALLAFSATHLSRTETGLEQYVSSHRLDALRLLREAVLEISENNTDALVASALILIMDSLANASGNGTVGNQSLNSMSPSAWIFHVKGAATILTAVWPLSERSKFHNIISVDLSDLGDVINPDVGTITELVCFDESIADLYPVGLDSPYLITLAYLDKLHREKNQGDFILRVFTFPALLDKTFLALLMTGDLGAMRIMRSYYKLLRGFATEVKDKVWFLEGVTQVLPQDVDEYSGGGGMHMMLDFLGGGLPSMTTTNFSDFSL
In short: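 PURExpress in vitro transcription/translation supplied GST-tagged yeast transcription factors, either full-length or DNA-binding domain. Applied at about 100-200 nM to universal all-10-mer Agilent arrays double-stranded by primer extension, the bound protein was detected with fluorescent anti-GST. E-scores, modified Wilcoxon-Mann-Whitney statistics, were given by the Universal PBM Analysis Suite to ungapped eight-base words pooled with their reverse complements after masliner normalisation.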

Sequence | PBM E-score
AGTCATAT | -0.13
CGACAGGA | 0.107
AAGCTTAG | -0.0363
TGATTTAA | -0.107
AAAGTCTC | -0.0443
GCAATTGC | -0.014
ACAGCGAG | -0.00379
CCACGTGA | -0.165
ATATAGGC | 0.0305
ACCGAAAA | 0.138
CAACAAGC | -0.163
AACCTTAA | -0.0268
GGGGCTAA | -0.163
GGGTGCTA | -0.224
ACACTAAA | 0.123
AGCGCGTC | -0.197
GCAGCACC | -0.408
CGTTAGAA | 0.187
ACTTCCTA | -0.194
ACGGACCC | 0.199
AGAGACAC | -0.0608
ACGTAAAT | 0.174
GCGAACCC | 0.0969
AGAAAACT | -0.094
CCATGTCC | -0.112

Sequence | PBM E-score
CTGGGTCC | -0.1
AATGTCGT | 0.318
GGCCGCAA | -0.0822
CGAACGTA | 0.22
CAAACGCA | 0.258
CATTGGAG | -0.0944
CGGTGCTA | 0.171
CATCTAAC | -0.0214
CATATTGA | -0.0938
AGCCCGGA | -0.0941
ATACATTC | -0.00444
CTAGGCAA | -0.304
GACTTGCC | -0.181
AATGACAG | -0.0946
ACAAGAGA | -0.0496
CTCTGTCC | -0.116
CATCACGA | -0.149
AATGACTC | -0.0886
GTAACTAA | 0.103
CGGGTGCA | -0.0254
CAGTGGGC | -0.138
CAATGGCC | -0.0349
CCCCTGCA | -0.248
GACATCAC | 0.0962
CGGTGGAA | 0.146

Sequence | PBM E-score
GAAGATAA | 0.0599
CAAGTCAG | -0.182
AACTTAAG | -0.176
AGGGAAAG | -0.113
ACGCAACT | 0.0512
CTTGGATC | -0.147
ATCTGCGA | -0.211
CCCGATCG | 0.138
ATGGAGTC | -0.26
GAACTGCC | -0.00245
GACCGATA | 0.123
GTAGCTAC | -0.00085
CCGCCTAG | -0.217
AATGGTCC | -0.0457
AGCAGTAG | -0.218
AAGCGCAA | 0.0633
AGACCAGA | -0.185
GATCCGCC | -0.0258
ACTGTGGA | -0.31
AGGGAGGA | -0.0889
ATTCCCTG | -0.184
CGCCTGAC | -0.106
GTCGAGCA | -0.207
AGACGACT | 0.0557
GGATATCC | 0.0302

Sequence | PBM E-score
GAATATCC | 0.0376
ATTGCTAA | 0.126
CACATTAG | -0.127
CGGAACTA | 0.0867
CTGTATCA | -0.19
GAAGAATC | -0.126
CACTCTGA | -0.156
CAGTTCGA | -0.152
ATTGTTGG | -0.153
AGTGGGAA | -0.129
CGATACCA | 0.151
ACATTCTA | -0.0366
AACCGTGC | 0.0408
CCAATAGA | -0.265
CTGACTAA | -0.101
CGGTAGCC | 0.0638
GGGTATAA | -0.0582
GACTACCA | -0.0157
CCGGGTAA | 0.0509
GAGGCTGC | -0.209
CGAGCCCC | 0.126
CTGCGAAA | -0.0463
CGATCACC | 0.116
ACGACTCT | 0.319
AGCTGACT | 0.0548

Sequence | PBM E-score
CTGTAGTA | 0.131
AGCACTAG | -0.0309
GTTCATCA | 0.0167
GCAGATAC | 0.105
CTGATATA | 0.0604
CCGGCGTA | 0.248
GATTTTTA | 0.069
CCTTCGAG | -0.116
AACGTGCA | 0.113
GATAGCCC | -0.109
CATCTGGA | -0.166
AGTAGCAA | 0.031
CAAAACCC | 0.0466
CGCGCCAC | -0.17
AGACCCAA | -0.132
CCAGCGTC | -0.209
CACTCATC | -0.0626
AGCAGCGC | -0.0927
GGTGAGTA | -0.124
AAACAAGA | 0.139
AGGACTTC | -0.183
GTGGAAAA | 0.124
GTGCGAAA | 0.0959
AGACCACG | -0.129
ACCGCCGA | -0.0605

Sequence | PBM E-score
CTTACAAA | 0.0368
CATCTTCG | 0.0565
GTCACTGA | -0.13
ATTCTGAG | -0.191
TATTGTCA | -0.0846
ATTTCACA | -0.227
ACATGCCT | -0.134
GGCAACAA | 0.0296
AGAGATTC | -0.0209
AATTCCGA | 0.166
AGATCTGG | -0.105
GACAATGC | -0.0118
GAGATCCA | -0.0815
CGCGATCC | 0.118
ACACGAAA | 0.197
GTCAATTA | 0.0697
ACGGTGCG | 0.268
TAGTTATA | 0.099
AACGGAGC | 0.165
GGCTGCCA | -0.185
CCCCGTAC | 0.368
ACTCCCGG | -0.244
CAGATGTC | 0.0314
CACACGTC | -0.154
AAGTCACT | -0.0329

Sequence | PBM E-score
CTCTACCC | 0.0316
ACGGGGCC | 0.159
CTTTAAGC | 0.00706
CTCGATCC | 0.0922
AATACTAG | 0.00488
CGACCAAC | 0.125
AAGATCTC | 0.0321
GGGAACAC | -0.0556
GATGGAGA | -0.217
CCTCCCTA | -0.00283
CTCAGCTC | -0.114
ATGACAGC | -0.115
GAGGAAGC | 0.00224
GGTGGTAC | 0.0249
TATTTCGA | 0.171
AACCAACG | -0.234
ACCCATGC | -0.259
TCATCAGA | -0.187
AGACACCG | -0.113
AACCGCCA | -0.147
CCAGTCAC | -0.276
CTGCGGCA | -0.102
